Assay results: PubChem BioAssay AID1794842 (National Center for Advancing Translational Sciences (NCATS), 2023)
Fewer than 10 of roughly 2,800 compounds were called active. Calls follow the shape of the dose curve; as a rule, active = well fitted curve in the direction sought with a large enough effect; inconclusive = small, poorly fitted or top-dose-only effect, or another doubt; inactive = no such curve, though single readings can be large or run the other way. Some of the results follow.

Biological target: Metallo-beta-lactamase type 2 (Klebsiella pneumoniae) (UniProt C7C422)
UniProt C7C422, sequence (C7C422 whole entry, looked up): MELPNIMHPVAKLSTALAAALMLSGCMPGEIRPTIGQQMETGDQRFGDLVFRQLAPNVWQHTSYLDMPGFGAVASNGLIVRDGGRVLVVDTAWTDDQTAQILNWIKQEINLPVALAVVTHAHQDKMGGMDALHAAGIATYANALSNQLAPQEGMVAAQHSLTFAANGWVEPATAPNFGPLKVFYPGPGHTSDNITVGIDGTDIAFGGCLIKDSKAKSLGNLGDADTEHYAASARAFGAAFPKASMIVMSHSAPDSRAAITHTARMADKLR
Experiment: qHTS to identify inhibitors of the New Delhi Metallo-beta-lactamase (NDM): Meropenem screen against the machine-based learning selections. Also: % of control where 0% means no effect.
Conditions: Purified NDM-1, meropenem hydrolysis, absorbance 300 nm; at 38.4 µM (top of the series) unless noted
Procedure, shortened: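 NDM-1 (2 nM final) in 50 mM HEPES pH 7.0, 1 uM Zn2SO4, 0.01% Tween20 was preincubated with compounds for >30 min. Nitrocefin (16.7 uM final) was read at 485 nm after 15 min, and meropenem (50 uM final) at 300 nm after 30 min.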

Activity change, negative = inhibition, inactive:
CC(C)(C)CC(=O)N1CCC(C(NC(=O)c2ccccc2Cl)C(=O)N2CCCCC2)CC1 (stereo not given) -4.52%
O=C(O)C[C@@H]1CCN(C(=O)C2CCCCC2)C[C@@H]1CCN1CCN(c2ccccn2)CC1 18.4%
Cc1ccc(NC(=O)N2CCCC(c3nccn3Cc3ccncc3)C2)cc1C (stereo not given) 0.303%
c1ccc(-c2cn3c(n2)CO[C@@H](CNCc2ccc4ccccc4n2)C3)cc1 23.8% [at 57.5 µM]
COC[C@]1(O)CCN(C(=O)CSCc2ccccc2C)CC1(C)C -2.58%
COCCn1nc2n(c1=O)CCN(S(=O)(=O)c1ccc(Cl)s1)CC2 -3%
CC(C)CCNC(=O)c1cccnc1N1CC2CC(C1)[C@H]1CCCC(=O)N1C2 (stereo not given in full) -1.13%
O[C@H]1[C@H](NCC2CCCCC2)[C@H]2CO[C@H](O2)[C@@H]1N1CCC(Cc2ccccc2)CC1 -2.59% [at 57.5 µM]
CN1CC2(CCN(C(=O)c3ccccc3-c3nn[nH]n3)CC2)CC1C(=O)O (stereo not given) 57.1%
COCCNS(=O)(=O)c1cc(C(=O)O)cc(-c2cccc(C(C)N(C)C)c2)c1 (stereo not given) -0.0026%
CC1=C[C@@H](CNC(=O)C2CCCCC2)[C@H](C(C)C)C[C@H]1CC(=O)N1CCN(c2ccccn2)CC1 0.957%
C#CCNC(=O)C[C@@H]1C[C@@H](C(C)C)[C@H](CNS(C)(=O)=O)C=C1C -2.46% [at 57.5 µM]
O=C(C[C@@H]1CCNC[C@@H]1Cc1cc(CN2CCOCC2)on1)N1CCC(Cc2ccccc2)CC1 -1.24%
CCc1noc(-c2ccn3c(CNC(=O)c4ccc(OC)c(F)c4)nnc3c2)n1 -2.08%
COC(=O)[C@@H]1Cc2ncn(Cc3ccc(Cl)cc3)c2CN1Cc1ccc(C(=O)O)cc1 8.42%
CCNC(=O)N[C@H]1CO[C@H]2[C@@H]1OC[C@@H]2Nc1nccc(-c2ccc(OC)cc2)n1 8.25% [at 57.5 µM]
O=C(c1ccco1)N1CCN(Cc2ccc3c(c2)CCO3)CC(O)C1 (stereo not given) -0.439%
O=C(Nc1cccc2ccccc12)O[C@@H]1CO[C@H]2[C@@H]1OC[C@@H]2n1nnnc1-c1ccc(-c2ccccc2)cc1 -0.841%
O=C(NCCc1csc(-c2cccnc2)n1)C1NCCc2[nH]cnc21 (stereo not given) 41.8%
CC1=C[C@@H](CNC(=O)CCCC(=O)O)[C@H](C(C)C)C[C@H]1Cc1nc2ccc(F)cc2[nH]1 2.35% [at 57.5 µM]
